This note sets out measurements from the supplement of paper PMC10338343.

± gives the standard deviation. Over roughly 6,600 sequences, “pre-steady-state target cleavage rate” has its median near 0.07; the highest 2% begin near 0.72. This is a selection; strong and weak results do not stand in their true shares.

This test relates to MIWI (PIWIL1) piRISC loaded with Kctd7 piRNA (30 nt). Description: pre-steady-state target cleavage rate (min^-1); MIWI and MILI are mouse PIWI proteins and EfPiwi is from a freshwater sponge; tags in brackets are library labels; higher = faster piRNA-guided slicing of the target. The following applies: guide: Kctd7 piRNA 5'p-UGUUAAUCUCUCAGAGAAGGUGACAGUGAU; auxiliary factor: 500 nM mouse GTSF1. The method, then: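 Cleave-'n-Seq: a library of target RNAs (target site embedded in constant flanks, ACAGCATTCCGCGTTAGTGATATCCG... 5' flank; DNA-blocked outside the site) at 0.1 nM was incubated with 1 nM active mouse MILI or MIWI piRISC (synthetic 5'-monophosphorylated piRNA guide) with or without 500 nM mouse GTSF1 at 33 °C for 1 min to 16 h. Uncleaved targets were sequenced and normalised to non-target controls, and the pooled three trials were fitted to a burst-and-steady-state model to give the pre-steady-state cleavage rate (min^-1; k3 is constrained to at most 1e-4). Sequence is the target site only; target names encode pairing extent (gX:gY) and contiguous / 1-mismatch / 2-mismatch / bulge geometry. Fits with R² ≤ 0 are excluded.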
Turning to UUCACUGUCACCUUCUCUCUGAGAUUUUGA, the “pre-steady-state target cleavage rate” value was 0.00836 ± 0.0045.

With UUCACUGUCACCAAGUCUGAGAGAUUUUGA, the “pre-steady-state target cleavage rate” value amounted to 0.0232 ± 0.01.

Turning to UAGUGACUCACCUUCUCUGAGAGAUUAUCA, the “pre-steady-state target cleavage rate” value amounted to 0.323 ± 0.057.

UAGACUGACACCUUCUCUCAGAGAUUAACA: the “pre-steady-state target cleavage rate” value was 0.076 ± 0.0059.

For UAGUGAGUCACCUUCUCUGAAAGAUUAACA, the “pre-steady-state target cleavage rate” value amounted to 0.572 ± 0.043.

Consider AUCACUGUCACCUUCUGUGAGAGAUUAAGA, for which the “pre-steady-state target cleavage rate” value was 0.0544 ± 0.015.

As to UAGACUGUCUGCUUCUCUGAGAGAUUAACA, the “pre-steady-state target cleavage rate” value is 0.559 ± 0.038.

With UAGUCUGUCACCUUCUCUGUGAGAUAAACA, the “pre-steady-state target cleavage rate” value was found to be 0.114 ± 0.012.

As to UAGACUGUCACCUUGUCUGAGAGAUUUACA, the “pre-steady-state target cleavage rate” value was 0.659 ± 0.12.

With UACACUGUGUCCUUCUCUGAGAGAUUAUGA, the “pre-steady-state target cleavage rate” value was 0.0345 ± 0.0098.

In the case of UAGUCUGACACCUUCACUGAGAGAUUAACA, the “pre-steady-state target cleavage rate” value worked out at 0.385 ± 0.02.

As for AUCUGAGUCACCUUCUCUGAGAGAUUAAGA, the “pre-steady-state target cleavage rate” value was 0.0948 ± 0.019.

Consider UUCACUGACACCUUCUCUGAGAGAUAUUGA, for which the “pre-steady-state target cleavage rate” value amounted to 0.095 ± 0.024.

In the case of AUCACUGUCACCUUCUCUGAUAGAUUAACA, the “pre-steady-state target cleavage rate” value turned out to be 0.657 ± 0.033.

For UACACUGUCACCAACUCUGAGAGAUUAUGA, the “pre-steady-state target cleavage rate” value is 0.00388 ± 0.0037.

Consider AUCACUGUCACCUGCUCUGAGAGAUUAACA, for which the “pre-steady-state target cleavage rate” value amounted to 0.673 ± 0.026.

For the sequence UACACUCUCACCUUCUCUGAGAGAUUUACA, the “pre-steady-state target cleavage rate” value is 0.232 ± 0.038.

In the case of UAGUGACUCACCUUGUCUGAGAGAUUAUGA, the “pre-steady-state target cleavage rate” value was found to be 0.00687 ± 0.0034.

In the case of UAGUGUGUGACCUUCACUGAGAGAUUAACA, the “pre-steady-state target cleavage rate” value amounted to 0.282 ± 0.024.

AUCGACUGUCACCUUCUCUGAGAGAUUAACA: the “pre-steady-state target cleavage rate” value was found to be 0.821 ± 0.059.

Regarding UAGAGUGUCACGUUCUCUGAGAGAUUAACA, the “pre-steady-state target cleavage rate” value was determined as 0.668 ± 0.03.

UAGUGUGUCACCUUCUCUGUGAGAUUAUCA: the “pre-steady-state target cleavage rate” value worked out at 0.0599 ± 0.012.

Take UAGUGACAGAGCUUCUCUGAGAGAAUAACA: the “pre-steady-state target cleavage rate” value was found to be 0.00364 ± 0.0026.

Regarding AUCACUGACACCUUCUCUGAGUGAUUAACA, the “pre-steady-state target cleavage rate” value worked out at 0.0357 ± 0.0069.

Take AUCACUGUCACCUUGUCUGAGAGAUUAAGA: the “pre-steady-state target cleavage rate” value turned out to be 0.61 ± 0.12.

Regarding UAGUCUGUCACGUUCUCUGAGAGAUUUACA, the “pre-steady-state target cleavage rate” value stood at 0.187 ± 0.026.

On to UUCACUGUCACCUUCACUGAGAGAUUUUGA, for which the “pre-steady-state target cleavage rate” value worked out at 0.518 ± 0.13.

In the case of UUCACUGUCAGCUUCUCAGAGAGAUUAACA, the “pre-steady-state target cleavage rate” value was found to be 0.25 ± 0.015.

Regarding UAGUGACACACCUUCUCUGAGAGUUUUUGA, the “pre-steady-state target cleavage rate” value was 0.00705 ± 0.0044.

For UUCUCUGUCACCUUCUCAGAGAGAUUAACA, the “pre-steady-state target cleavage rate” value is 0.135 ± 0.017.

UACACUGUCACCUUCUCUGAGACAUUUUGA: the “pre-steady-state target cleavage rate” value was 0.00497 ± 0.0047.

As for UACACACACACCUUCUCUGAGAGAUAUUGA, the “pre-steady-state target cleavage rate” value amounted to 0.0739 ± 0.026.

As to UACACUGUCACCUAGUCUGAGAGAUUAACA, the “pre-steady-state target cleavage rate” value was found to be 0.499 ± 0.033.

With UAGACUGUCACCUAGACUGAGAGAUUAACA, the “pre-steady-state target cleavage rate” value came to 0.0166 ± 0.0036.

Turning to UAGUGACAGUCCUUCUCUGUGAGAUUAAGA, the “pre-steady-state target cleavage rate” value is 0.00358 ± 0.0027.

On to UACACUGUCACCUAGUCUGAGAGAUUUUGA, for which the “pre-steady-state target cleavage rate” value is 0.0238 ± 0.01.

Turning to UACACUCAGACCUUCUCUGAGAGAUUAUGA, the “pre-steady-state target cleavage rate” value amounted to 0.0073 ± 0.0047.

UAGUGUGUCACCUUCUCCGAGAGAUUAACA: the “pre-steady-state target cleavage rate” value turned out to be 0.546 ± 0.11.

On to AUCACUGUCACCUUCUCUGAGAGAAAAUGA, for which the “pre-steady-state target cleavage rate” value came to 0.0648 ± 0.022.

Consider UAGUGACAGUGCUUCUCUGAGAGAUUAAUA, for which the “pre-steady-state target cleavage rate” value was determined as 0.0189 ± 0.004.

For UACAGUGACACCUUCUCUGAGAGAUUAACA, the “pre-steady-state target cleavage rate” value came to 0.553 ± 0.025.

Regarding UUCACUGUCACCUUCACUGAGAGAUUAUGA, the “pre-steady-state target cleavage rate” value is 0.146 ± 0.034.

Regarding UAGACUGUCACCUUCUGUGAGACAUUAACA, the “pre-steady-state target cleavage rate” value came to 0.221 ± 0.018.

For the sequence UAGUGAGUCUCCUUCUCUCAGAGAUUAACA, the “pre-steady-state target cleavage rate” value was found to be 0.0603 ± 0.0063.

With UAGUGACUCACCUUCUCUGAGAGACUUAACA, the “pre-steady-state target cleavage rate” value stood at 0.175 ± 0.028.

For UAGUGACACACCUUCUAUGAGAGAUUAACA, the “pre-steady-state target cleavage rate” value worked out at 0.0665 ± 0.011.

Turning to UUCACUGUCUCCUUCUCUGAGAGUUUAACA, the “pre-steady-state target cleavage rate” value was determined as 0.42 ± 0.061.
